According to article PMC10668032:
The other results are listed elsewhere or left out. At the low end of the ranking the order means little.

These sequences were tested against SIX1 homeodomain (reference allele) (UniProt Q15475) (assay: universal protein binding microarray). Conditions: Universal all-10-mer PBM (8x60K, AMADID 030236), 300 nM GST-tagged protein, Alexa Fluor 488 anti-GST; buffer, salt, pH and temperature not stated; high values mean tight binding; most listed sequences are background and not binding sites; double strand, one strand shown.
For CAACGAGC, the binding signal was -0.168 E-score.
Sequence AATCCACG has a binding signal of -0.0709 E-score.
AGCGCGAA was tested, and the binding signal was -0.189 E-score.
With GTACAATA the binding signal was 0.0743 E-score.
CATAGAGC showed a binding signal of -0.151 E-score.
In the case of GCAGCTAA, the binding signal is reported as -0.189 E-score.
Sequence ATCGACGC has a binding signal of -0.0319 E-score.
In the case of AAAGGCGT, the binding signal is reported as -0.131 E-score.
With GCTATTAC the binding signal was 0.0732 E-score.
CCATTATC showed a binding signal of 0.127 E-score.
Sequence CCATGCGG has a binding signal of -0.0832 E-score.
ACGTCTGG showed a binding signal of -0.218 E-score.
ATACCAAG showed a binding signal of 0.285 E-score.
TCGAGGAA gave a binding signal of -0.21 E-score.
Work on ACGCCCCC yielded a binding signal of -0.101 E-score.
Work on CGTGGCAA yielded a binding signal of -0.204 E-score.
For ATTCACGA, the binding signal was 0.0136 E-score.
GTCTTCTA was tested, and the binding signal was -0.0681 E-score.
For ACACAATG, the binding signal was 0.00245 E-score.
AGGTGATG was tested, and the binding signal was -0.0263 E-score.
Sequence GATGTAAC has a binding signal of -0.0713 E-score.
With AATACGGC the binding signal was 0.252 E-score.
In the case of ACTGACCC, the binding signal is reported as 0.0491 E-score.
With ACTACTAT the binding signal was 0.122 E-score.
CTGTTCTA showed a binding signal of -0.0952 E-score.
AGTTTGGA showed a binding signal of 0.0293 E-score.
GGGTCCTA gave a binding signal of -0.00688 E-score.
Sequence AGGCAGGC has a binding signal of -0.166 E-score.
ACATGCTA gave a binding signal of -0.158 E-score.
In the case of ATAGCGCG, the binding signal is reported as 0.0138 E-score.
ACATATGA gave a binding signal of 0.166 E-score.
In the case of ACTCTTGA, the binding signal is reported as 0.00743 E-score.
In the case of CGGAAGAA, the binding signal is reported as -0.218 E-score.
With ACCATCGC the binding signal was -0.174 E-score.
AGGTACCG was tested, and the binding signal was 0.00903 E-score.
For CCACCGCG, the binding signal was 0.126 E-score.
Sequence AGAGGTAC has a binding signal of -0.0714 E-score.
Sequence GCAAAGCA has a binding signal of -0.146 E-score.
Work on GCTGTGAC yielded a binding signal of -0.0895 E-score.
ACCGAGCG was tested, and the binding signal was -0.0382 E-score.
Sequence GAGCGTTA has a binding signal of -0.143 E-score.
Work on ATTGCCTG yielded a binding signal of -0.0952 E-score.
With ATGATTGC the binding signal was -0.0515 E-score.
GTGCCTCA gave a binding signal of -0.382 E-score.
GTAAGACA gave a binding signal of -0.149 E-score.
For ATCTTCTA, the binding signal was 0.227 E-score.
Work on ACCGGCGA yielded a binding signal of 0.0881 E-score.
Work on CTGAGTAA yielded a binding signal of -0.18 E-score.
Sequence GTGGGATA has a binding signal of 0.348 E-score.
In the case of CCATTGGG, the binding signal is reported as -0.00459 E-score.
Sequence ATTCACCC has a binding signal of -0.121 E-score.
CACAATAC gave a binding signal of 0.31 E-score.
Work on GTTGCAAA yielded a binding signal of -0.124 E-score.
Sequence ACGAGGAA has a binding signal of 0.0787 E-score.
Work on CGTCGACA yielded a binding signal of -0.146 E-score.
Sequence AGACCGTA has a binding signal of -0.0102 E-score.
With TCGTACCA the binding signal was 0.0409 E-score.
AACACTCT was tested, and the binding signal was -0.109 E-score.
CCTCTTCC showed a binding signal of -0.215 E-score.
In the case of CACTAGCA, the binding signal is reported as -0.106 E-score.
Sequence GCAGTTCA has a binding signal of -0.134 E-score.
Sequence CGATCCGC has a binding signal of 0.418 E-score.
In the case of CATCACGG, the binding signal is reported as 0.00309 E-score.
In the case of GACATTGC, the binding signal is reported as -0.0675 E-score.
ATGGTAGG was tested, and the binding signal was -0.0152 E-score.
Sequence CCACGGAC has a binding signal of -0.134 E-score.
In the case of AGGAATGC, the binding signal is reported as -0.178 E-score.
With CGGTTAAC the binding signal was -0.0818 E-score.
TACACACA showed a binding signal of 0.156 E-score.
With GCAAAATA the binding signal was 0.0309 E-score.
ATTACCTA was tested, and the binding signal was 0.0771 E-score.
Sequence AGGCCGGC has a binding signal of -0.221 E-score.
With CTACATAC the binding signal was 0.159 E-score.
In the case of ACCCTGAC, the binding signal is reported as -0.0416 E-score.
In the case of GGCAGCTA, the binding signal is reported as -0.113 E-score.
For AGCACCAA, the binding signal was -0.0758 E-score.
CTTACATA gave a binding signal of -0.0582 E-score.
For CCCTCTGC, the binding signal was -0.145 E-score.
AAAGCGCC gave a binding signal of -0.167 E-score.
Work on CTCCGCTA yielded a binding signal of -0.205 E-score.
In the case of CGTATAAA, the binding signal is reported as 0.219 E-score.
GTGTATCA gave a binding signal of 0.462 E-score.
CACGACCA showed a binding signal of -0.108 E-score.
For AGAGCGGA, the binding signal was -0.133 E-score.
CATCTACG was tested, and the binding signal was 0.0999 E-score.
In the case of AACTATCT, the binding signal is reported as 0.0574 E-score.
CCCACACG showed a binding signal of 0.109 E-score.
ACTATGCG showed a binding signal of 0.0748 E-score.
In the case of GCTCTCGA, the binding signal is reported as -0.22 E-score.
Work on AGCATTTG yielded a binding signal of -0.148 E-score.
Work on CACAATGA yielded a binding signal of 0.025 E-score.
CCTAAATC gave a binding signal of 0.0404 E-score.
Work on GTCGCATA yielded a binding signal of 0.0853 E-score.
Work on CTTCAGGC yielded a binding signal of -0.241 E-score.
Sequence ACATTAAA has a binding signal of -0.264 E-score.
TGCCATAA was tested, and the binding signal was -0.112 E-score.
With CTACTGAG the binding signal was 0.0072 E-score.
ATCGCCAG gave a binding signal of 0.175 E-score.
ATAACAAC gave a binding signal of -0.00556 E-score.
AGTGATTC gave a binding signal of 0.00105 E-score.
With ACGATATG the binding signal was 0.417 E-score.
Work on AACAAATT yielded a binding signal of -0.266 E-score.
Sequence CCCCATAG has a binding signal of 0.0304 E-score.
CCCGATCC showed a binding signal of 0.366 E-score.
AATCGCGG showed a binding signal of -0.00756 E-score.
CTCGATTA gave a binding signal of 0.0353 E-score.
In the case of AAATGATT, the binding signal is reported as -0.322 E-score.
In the case of ACCGCTAG, the binding signal is reported as 0.0327 E-score.
Work on ACCGGGCA yielded a binding signal of -0.119 E-score.
GCTCGTGA showed a binding signal of -0.0958 E-score.
ACCATTCC gave a binding signal of -0.0379 E-score.
GCATATGA showed a binding signal of 0.167 E-score.
For ATATGATC, the binding signal was 0.378 E-score.
Sequence TCCTAAAA has a binding signal of -0.133 E-score.
With CGAATAAC the binding signal was -0.173 E-score.
Work on ACGCGTCC yielded a binding signal of -0.0293 E-score.
For ACCGGCAA, the binding signal was -0.0271 E-score.
Sequence CACCGATA has a binding signal of 0.374 E-score.
For AAGCGTGC, the binding signal was -0.241 E-score.
In the case of GTTGCGCA, the binding signal is reported as -0.307 E-score.
In the case of ACTATCCC, the binding signal is reported as 0.294 E-score.
For GGGGGAAA, the binding signal was -0.125 E-score.
ATAGCTCA gave a binding signal of 0.148 E-score.
Work on AAGGATCC yielded a binding signal of 0.35 E-score.
Work on AACGAAGT yielded a binding signal of -0.21 E-score.
In the case of ATCGCGGC, the binding signal is reported as 0.19 E-score.
For GGCCTACC, the binding signal was -0.119 E-score.
Sequence ACGAACAT has a binding signal of 0.0488 E-score.
CTTCGAAG was tested, and the binding signal was -0.199 E-score.
In the case of GCCTGAGC, the binding signal is reported as -0.134 E-score.
AGCAAAGA gave a binding signal of -0.179 E-score.
In the case of CCTCAACG, the binding signal is reported as -0.132 E-score.
With AGGTATCA the binding signal was 0.487 E-score.
ACCGATTA gave a binding signal of 0.0656 E-score.
Sequence GTAAACAC has a binding signal of 0.0999 E-score.
For GTAGACCA, the binding signal was -0.0545 E-score.
For ATTCACTA, the binding signal was -0.146 E-score.
CGCGCAAA was tested, and the binding signal was 0.0692 E-score.
In the case of ACAAGCTG, the binding signal is reported as -0.0746 E-score.
TATCGACA showed a binding signal of 0.343 E-score.
In the case of AGAATGCT, the binding signal is reported as -0.0372 E-score.
Sequence ATCATGCC has a binding signal of 0.244 E-score.
Work on AAACCGAA yielded a binding signal of -0.0402 E-score.
CCGGGGCC was tested, and the binding signal was 0.0128 E-score.
In the case of ATTCGTTG, the binding signal is reported as 0.0927 E-score.
GCCGGGAA showed a binding signal of -0.113 E-score.
Work on GTAGCCTA yielded a binding signal of -0.141 E-score.
In the case of AAATGATA, the binding signal is reported as 0.415 E-score.
In the case of TAGCTGGA, the binding signal is reported as 0.0126 E-score.
Work on ATTCTTGC yielded a binding signal of -0.0596 E-score.
With TAGCCCCA the binding signal was 0.0784 E-score.
ACTCGTTG showed a binding signal of -0.236 E-score.
ATTACGGC was tested, and the binding signal was 0.0297 E-score.
GACCTCTC showed a binding signal of -0.0541 E-score.
For GGCAGGCA, the binding signal was -0.199 E-score.
CCGCTGGA gave a binding signal of 0.00617 E-score.
AATCTCGA was tested, and the binding signal was -0.0708 E-score.
Sequence ATCACTGA has a binding signal of 0.243 E-score.
TAGAACTA gave a binding signal of -0.168 E-score.
CGAAGATA gave a binding signal of 0.325 E-score.
Sequence AACGCACC has a binding signal of -0.0365 E-score.
In the case of AAGTTAGA, the binding signal is reported as 0.0886 E-score.
Sequence AACGAGCG has a binding signal of -0.0799 E-score.
CTCGATAC gave a binding signal of 0.41 E-score.
In the case of CATCAATG, the binding signal is reported as 0.0199 E-score.
With ACACGTAT the binding signal was 0.365 E-score.
Work on ATCGCGAC yielded a binding signal of 0.232 E-score.
Work on GAACCGAC yielded a binding signal of -0.0194 E-score.
For ACGCAGTG, the binding signal was -0.132 E-score.
GAAAACAA showed a binding signal of -0.0524 E-score.
ATATACCC was tested, and the binding signal was 0.446 E-score.
GATTCGCA was tested, and the binding signal was -0.0805 E-score.
